Assay results reported in PubChem BioAssay AID1745845 (National Center for Advancing Translational Sciences (NCATS), 2022).
In all, about 360,000 compounds went through this assay and about 2,600 (0.72%) were called active. The shares of active, inactive and inconclusive entries below differ from those in the screen. Calls come from the whole dose curve; as a rule, active = well fitted inhibition curve with a large enough effect; inconclusive = small, poorly fitted or top-dose-only effect; inactive = no such curve, though single readings can be large or run the other way. Potencies of inconclusive entries are doubtful fits and often do not repeat.

Experiment: Primary qHTS for Inhibitors of ATXN expression; note: nearly all actives have a fitted effect of over 55% in size
Conditions: HEK-293 ATXN2-luciferase reporter, luminescence, 24 h; activity change, negative = inhibition: at 57 µM (top of the series)
In short: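 qHTS (up to 57 uM final) was run with 24 h compound exposure of reporter cells at 37 °C. Each well was multiplexed: SteadyGlo luminescence measured ATXN2-luciferase expression after a fluorogenic Gly-Phe-AFC viability readout (25 uM final).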
% is set by controls: 0 for no effect and ±100 for the full control effect; potency is the fitted concentration of half-maximal effect; tags give direction and shape of the fitted curve.

Potency, inconclusive:
COc1ccc(NC(=O)c2sc3nc4c(cc3c2N)CN(C(C)C)CC4)c(OC)c1 39.8 µM [inhibitor, single point]
FC(F)(F)c1cccc(N2CCN(c3ccc4nnc(-c5ccccc5)n4n3)CC2)c1 39.8 µM [inhibitor, single point]
COc1ccc(OCCN2CCC(C(=O)NC(c3ccc(Cl)cc3)c3ncccc3C)CC2)cc1 (stereo not drawn) 25.1 µM [inhibitor, partial curve]
O=C(NCCCN1CCCC1)c1cc2c(Cl)nc3ccccc3c2s1 17.8 µM [inhibitor, partial curve, poor fit]
C[C@H]1CN([C@@H](C)CO)C(=O)Cc2cc(NC(=O)C3CC3)ccc2O[C@H]1CN(C)Cc1ccc(Oc2ccccc2)cc1 39.8 µM [inhibitor, single point]
CC1Cc2cc(S(=O)(=O)N3CCC(C(=O)N4CCN(c5ccccc5F)CC4)CC3)ccc2N1C(=O)C1CC1 (stereo not drawn) 11.2 µM [inhibitor, partial curve, poor fit]
COc1ccc(-c2ccc(CNc3ccc4[nH]c(=O)[nH]c4c3)o2)cc1Cl 7.08 µM [inhibitor, single point]
c1ccc(-c2nc(-c3ccccn3)nc(-c3ccccn3)n2)nc1 3.36 µM [inhibitor, partial curve, poor fit]
O=C(Nc1cc(Cl)cc(Cl)c1)c1ccc(F)c(S(=O)(=O)NC2CCCCC2)c1 25.1 µM [inhibitor, single point]
CCC(CO)Oc1cc(NCc2cccc(Cl)c2)c2ncn(C(C)C)c2c1 (stereo not drawn) 35.5 µM [inhibitor, single point]
O=C(NNC(=O)C12CC3CC(CC(C3)C1)C2)c1ccccc1O 12.6 µM [inhibitor, partial curve, poor fit]
CC(C)Cn1c2c(c(=O)[nH]c1=O)C(C(F)(F)F)(C(F)(F)F)N=C(CCC1CCCCC1)N2 37.7 µM [inhibitor, single point]
Cc1cccc(COC[C@H](Cc2ccccc2)N2CCN(C(=O)c3ccc(C(F)(F)F)cc3)CCC2=O)c1 31.6 µM [inhibitor, single point]
CCOC(=O)c1ccc2c(c1)nc(C1CCN(S(=O)(=O)c3cccs3)CC1)n2CC 31.6 µM [inhibitor, single point]
COc1ccc(CCNC(=O)c2ccc3c(Cl)c4c(nc3c2)CCCC4)c(OC)c1 31.6 µM [inhibitor, single point]
C[C@H]1CN([C@@H](C)CO)C(=O)CCCn2nncc2CO[C@@H]1CN(C)Cc1ccc(-c2ccccc2)cc1 35.5 µM [inhibitor, single point]
Cc1ccc2nc(-c3ccc(N)cc3)sc2c1 10 µM [inhibitor, single point]
COc1cc(OCc2ccccc2)c(C(=O)/C=C/c2ccc3c(c2)OCO3)c(OC)c1OC 20 µM [inhibitor, single point]
Cc1ccc2c(c1)nnn2C1CCN(CC(=O)N2c3ccccc3CC2C)CC1 (stereo not drawn) 39.8 µM [inhibitor, single point]
OCCOCCN1CCN(C(c2ccccc2)c2ccc(Cl)cc2)CC1 (stereo not drawn) 22.4 µM [inhibitor, partial curve, poor fit]
Cc1ccc(CS(=O)(=O)c2ncc(Cl)c(C(=O)Nc3nnc(C)s3)n2)cc1 39.8 µM [inhibitor, single point]
COc1ccc(-c2nc(C(=O)NCCCN3CCOCC3)cc3c2[nH]c2ccccc23)cc1OC 39.8 µM [inhibitor, single point]
Cc1onc(-c2ccccc2)c1C(=O)OCC(=O)Nc1ccc(C#N)cc1 1.78 µM [inhibitor, partial curve]
CCc1ccc(-c2nc(CS(=O)CC(=O)NCc3ccccc3)c(C)o2)cc1 (stereo not drawn) 10 µM [inhibitor, partial curve]
Cc1cccc(Nc2nc(-c3ccc(F)cc3)cs2)n1 39.8 µM [inhibitor, single point]
C/C=C(/C)C(=O)O[C@@H]1c2c(ccc3ccc(=O)oc23)OC(C)(C)[C@@H]1OC(=O)/C(C)=C\C 39.8 µM [inhibitor, single point]
CS(=O)(=O)c1ccc2nc(NC(=O)CCS(=O)(=O)c3ccccc3)sc2c1 35.5 µM [inhibitor, single point]
O=C(Cn1nc(C(F)(F)F)c2c1CCC2)Nc1ccc(Cl)cc1 35.5 µM [inhibitor, single point]
O=C(Nc1cccc(-c2nnc(-c3ccccc3)o2)c1)c1ccc(Br)o1 39.8 µM [inhibitor, single point]
Cc1ccccc1CN1CCc2c(OCC(=O)N3CCCc4ccccc43)cccc2C1=O 15.8 µM [inhibitor, partial curve, poor fit]
CC[C@@H]1C=C(C)C[C@H](C)C[C@H](OC)[C@H]2O[C@@](O)(C(=O)C(=O)N3CCCC[C@@H]3C(=O)O[C@H](C(C)=C[C@@H]3CC[C@H](Cl)[C@H](OC)C3)[C@H](C)[C@@H](O)CC1=O)[C@H](C)C[C@H]2OC 38.5 µM [inhibitor, single point]
CCOc1ccc(C(=O)NCCn2cc(SCC(=O)Nc3ccccc3)c3ccccc32)cc1 28.2 µM [inhibitor, single point]
Cc1ccccc1-c1nc(CS(=O)(=O)CC(=O)Nc2cc(Cl)cc(Cl)c2)c(C)o1 39.8 µM [inhibitor, single point]
CC1CN(S(=O)(=O)c2cccc(C(=O)Nc3cc(Cl)ccc3N3CCOCC3)c2)CC(C)O1 (stereo not drawn) 33.6 µM [inhibitor, single point]
O=Cc1[nH]c2ccccc2c1N(C(=O)CCl)c1ccccc1 39.8 µM [inhibitor, single point]
NC(=O)[C@@H]1CC2(CC(c3cccc(NC(=O)CC(c4ccccc4)c4ccccc4)c3)=NO2)CN1C(=O)COc1ccc(Cl)cc1 (stereo partly drawn) 25.1 µM [inhibitor, partial curve, poor fit]
COC(=O)c1cc(=O)n(-c2ccc(F)cc2)c(=Nc2ccc(F)cc2)s1 26.7 µM [inhibitor, single point]
Cc1ccc(S(=O)(=O)N2c3ccccc3-c3c(ssc3=S)C2(C)C)cc1 39.8 µM [inhibitor, partial curve, poor fit]
CC(C)(C)c1ccc(C(=O)O/N=C(\N)c2ccccn2)cc1 22.4 µM [inhibitor, single point]
CC12CCC(=O)C=C1CCC1C2CCC2(C)C(c3csc(N)n3)CCC12 (stereo not drawn) 25.1 µM [inhibitor, single point]
CCCCc1c(-c2ccccc2OC)ncn1CCc1ccccc1 35.5 µM [inhibitor, single point]

Potency, active:
CCc1ccc(C(=O)Nc2cc(CN3CCN(C)CC3)cc(C(F)(F)F)c2)cc1C#Cc1cnc2ccnn2c1 24.3 µM
Oc1ccc(CN2CCCCC2)c2cccnc12 20 µM
O=C(Cn1sc2ccccc2c1=O)Nc1ccccc1 35.5 µM
Cn1c2ccccc2c2c3c(c4c5ccccc5n(CCC#N)c4c21)CNC3=O 6.85 µM

Activity change, negative = inhibition, inactive:
O=C(Cc1ccccc1)NCCc1ccc(Cl)cc1Cl -3.48%
COC(=O)c1ccc2nc(-c3ccc(C)cc3)c(Cc3cccc(Cl)c3)n2c1 -25.1%
COc1ccc(C)cc1S(=O)(=O)N(CC(=O)N1CCOCC1)Cc1ccccc1 1.12%
CCc1ccccc1NC(=O)Cn1c(=O)n(Cc2ccco2)c(=O)c2sc3ccccc3c21 0.171%
Cc1ccc(NC(=O)Cn2c(=O)n(Cc3ccc4c(c3)OCO4)c(=O)c3ccccc32)c(C)c1 5.54%
CCn1c(CNc2ccc(OC)cc2)nnc1SCC(=O)Nc1ccc(F)cc1 6.78%
O=C(Nc1ccc(Cc2ccncc2)cc1)C1CCC(N2C(=O)C3C4C=CC(C5CC45)C3C2=O)CC1 (stereo not drawn) -23.2%
CCc1ccc(N(C(=O)c2snc(C(N)=O)c2N)C(C(=O)NCCC(C)C)c2c[nH]c3ccccc23)cc1 (stereo not drawn) -13.1%
Cc1c(-c2nc(N)nc(Nc3ccccc3F)n2)oc2ccccc12 107%
O=C(CN1CCC(n2nnc3cc(F)ccc32)CC1)N1CCCc2ccccc21 -6.76%
O=C(Nc1nccs1)c1ncc(Cl)c(Cl)c1Cl -14%
Cc1cc(CCCOc2c(C)cc(-c3noc(C(F)(F)F)n3)cc2C)on1 -10%
NNC(=O)c1oc2nc(-c3ccccc3)cc(-c3ccccc3)c2c1N -31.5%
COc1cc(CN(C(=O)c2cccc(C)c2)c2ccccn2)cc(OC)c1OC -6.25%
O=C(c1ccco1)N1c2ccccc2Sc2ccccc21 -9.18%
COc1ccccc1N/C(=N/S(=O)(=O)c1ccc(C)cc1)c1ccccc1 -19.6%
CCOC(=O)[C@@H]1[C@H]2COc3ccccc3[C@@H]2N2C(=O)N(c3ccc(C(F)(F)F)cc3)C(=O)[C@@]12C -3.25%
Cc1cc(Cl)c(S(=O)(=O)N/N=C/c2ccc3c(c2)OCO3)c(Cl)c1 19.4%
